In all, about 16,000 sequences were measured (“Z-score”: median about -0.37, highest 2% from about 3.2 on). This is one part of the list.
tested on: RBM10 RRM1-ZnF (GST-tagged construct); assay: RNAcompete 7-mer binding Z-score; higher = stronger binding preference
How it was run: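 A designed pool of 241 399 RNAs, each up to 41 nt and transcribed from microarray-derived DNA templates, was used at 1.5 nmol with 20 pmol of GST-tagged RBM10 constructs. The mixture, in 1 ml Hepes pH 7.8 buffer with KCl, NaCl, glycerol, DTT, BSA and glutathione Sepharose beads, was held 30 min at 4°C and then washed four times for 2 min at 4°C. Bound RNA was read out by microarray hybridisation, and enrichment of each heptamer motif was scored as a one-sided Z-score over the probes carrying it.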

Row | Sequence | RNAcompete 7-mer binding Z-score
1 | CACAGGG | 2.18
2 | AUCGAUA | -0.334
3 | CCGUGCC | -0.532
4 | UCAUCGC | -0.61
5 | AUUGCGG | 0.556
6 | AUAUAGC | -0.357
7 | UUACGUA | -0.568
8 | CGCUGCU | -0.509
9 | CUUUGUA | -0.909
10 | CAUAUCU | -0.675
11 | CGCGCUA | -0.509
12 | GUGUUCU | -0.584
13 | UGUGACC | -0.149
14 | UGGGAAU | 2.53
15 | ACAGCAA | -0.272
16 | GAUUCCG | -0.675
17 | AGCGUUG | 0.179
18 | CGGUCUC | -0.574
19 | UCGUCAU | -0.685
20 | CGUUUUC | -0.717
21 | UCUCAUU | -0.85
22 | GUCGGCA | -0.0609
23 | CAAGUAG | 0.264

Row | Sequence | RNAcompete 7-mer binding Z-score
24 | CACAGUU | -0.642
25 | UAGAUCA | -0.00571
26 | ACUGAUG | 0.0203
27 | CGCUGUC | -0.613
28 | UACUUUU | -0.867
29 | AAAGUUG | 0.248
30 | UGAAGCU | -0.262
31 | UAGCCGG | -0.288
32 | AUUAGUG | 0.42
33 | GGGAAUC | 1.58
34 | CGACGGG | 1.62
35 | AAUCAUU | -0.665
36 | UCAGCUA | -0.607
37 | CGUUAUU | -0.561
38 | ACGCCCG | -0.591
39 | UCCCUCA | -0.701
40 | CAGUUAU | -0.626
41 | UCGAGGG | 1.95
42 | AUUGGAU | 0.904
43 | CAUAUCG | -0.629
44 | GGGGCUG | 2.75
45 | CCACUAA | -0.805
46 | AAGGUUG | 3.49

Row | Sequence | RNAcompete 7-mer binding Z-score
47 | GCGACCC | -0.545
48 | GCCGCGA | -0.422
49 | AACAUUU | -0.646
50 | CGAUCAU | -0.581
51 | CGACUAU | -0.617
52 | GCUGGUC | 0.105
53 | GACCGGG | 1.26
54 | ACGCUGA | -0.431
55 | GCUACAA | -0.422
56 | GCCCACA | -0.454
57 | UUAGCCC | -0.707
58 | GUUGUCG | -0.171
59 | CUUGAUA | -0.73
60 | UCGUGGA | 0.8
61 | GGAACAG | 2.02
62 | CAUUAUU | -0.798
63 | UACCUGA | -0.662
64 | GUCAUAC | -0.35
65 | AUAAACA | -0.48
66 | CCACUAG | -0.519
67 | AACGACU | -0.457
68 | GCGAGUU | -0.152
69 | CCUUUAC | -0.912

Row | Sequence | RNAcompete 7-mer binding Z-score
70 | UGCAUCA | -0.522
71 | AUUCCAC | -0.818
72 | UAUAUAU | -0.366
73 | GAACAUC | -0.587
74 | AAUUCUU | -0.798
75 | UAAGAGG | 1.28
76 | CAUAUCA | -0.678
77 | UAUUAGG | 0.602
78 | GCAAACG | 0.03
79 | ACAAGGA | 1.78
80 | CUAGAAC | -0.357
81 | UGCCAUG | -0.496
82 | ACCUAUC | -0.928
83 | CUCAAAG | -0.418
84 | UGAGACG | 0.579
85 | GGGUUCU | 0.998
86 | AAUUCGC | -0.561
87 | CUCCGCC | -0.451
88 | GCUGAGA | 0.118
89 | GGGCCGC | 0.29
90 | UGGCGCA | 0.439
91 | AGAACGU | -0.383
92 | UGUUCGU | -0.464

Row | Sequence | RNAcompete 7-mer binding Z-score
93 | UAUAACA | -0.389
94 | AAAGACC | -0.672
95 | AGGCGUG | 0.833
96 | ACUGAUA | -0.353
97 | UUAAUUG | -0.477
98 | UAGAUAG | 0.361
99 | UAACCAA | -0.542
100 | GGUUCCG | 0.199
101 | GCUAAUC | -0.526
102 | GUGGACU | 1.24
103 | UAGUAAG | 0.404
104 | AGCUAUU | -0.629
105 | GAGUCCA | -0.376
106 | AUUUAUG | -0.23
107 | AUCAAUU | -0.665
108 | GAUGAGU | 1.06
109 | UCCCGUC | -0.659
110 | GCCUCGU | -0.568
111 | CACGGCG | -0.129
112 | UCCCUAA | -0.691
113 | AGUGAGA | 1.13
114 | CCUUGUU | -0.86
115 | GGUGUGG | 4.32

Row | Sequence | RNAcompete 7-mer binding Z-score
116 | GAACGGA | 2.03
117 | CACUCUG | -0.733
118 | CUCGACU | -0.802
119 | UUUAGGU | 0.397
120 | GGAUAUU | 1.16
121 | CGCGGAA | 0.553
122 | AAUGGGG | 4.2
123 | AUGCUCA | -0.571
124 | AGGACUU | -0.262
125 | UCACCGG | -0.136
126 | AAAAAAG | -0.0479
127 | GGUGACG | 2.1
128 | AGUAACG | 0.293
129 | UGCACCU | -0.581
130 | GUAGGGA | 3.87
131 | GCGCAGU | -0.00246
132 | GUCGCGC | -0.249
133 | GCUACCG | -0.324
134 | GGCGUUA | 0.28
135 | AAGUCGC | -0.266
136 | GCGGUUU | 0.959
137 | CGAGGUA | 1.57
138 | UAUCGAA | -0.389

Row | Sequence | RNAcompete 7-mer binding Z-score
139 | AUGACAA | -0.103
140 | GGGUCCA | 0.751
141 | UGUUAAU | -0.613
142 | UAGCCAG | -0.259
143 | CGGGUGG | 3.64
144 | CUAUCAU | -0.532
145 | ACUCACG | -0.503
146 | CAGGGAC | 1.49
147 | UCCACAA | -0.678
148 | GGACGCC | 0.0138
149 | UGACUGG | 1.43
150 | ACCUGAU | -0.863
151 | AUAUCGG | 0.183
152 | GUUUCAG | -0.116
153 | ACAAGUC | -0.591
154 | AGUGCAU | -0.0772
155 | UCAAGUC | -0.516
156 | UUGGCUC | -0.516
157 | CGAGCUA | -0.0252
158 | UUGAAAC | -0.587
159 | CGGAGCG | 1.23
160 | AUUGGGA | 2.83
161 | GCGUAAA | 0.095

Row | Sequence | RNAcompete 7-mer binding Z-score
162 | UUAUACU | -0.701
163 | GGGAUGA | 4.17
164 | UAGUGCA | 0.296
165 | GUAGUAU | -0.129
166 | UUUUAUC | -0.873
167 | UCUGGGA | 0.508
168 | AUGACGC | -0.383
169 | ACUUAGU | -0.435
170 | CGGUCCC | -0.253
171 | UUCUUUG | -0.659
172 | AAGAUGU | 0.303
173 | ACAUGAA | -0.0317
174 | UCGCGCC | -0.711
175 | CUCUGCG | -0.772
176 | GGAUUUG | 1.18
177 | CUGGUGU | 0.628
178 | CUUCCAG | -0.675
179 | CUUACAC | -0.841
180 | GCCAGAU | -0.467
181 | UCCACCG | -0.503
182 | UUGUCCC | -0.604
183 | GUGAUAA | 0.449
184 | GAGUAAC | 0.16

Reference: the supplement of paper PMC5499739
